Data from article PMC4980431, “Ctf4 Is a Hub in the Eukaryotic Replisome that Links Multiple CIP-Box Proteins to the CMG Helicase” (Molecular Cell, 2016).
No constants are given. Whether binding was seen depends on the method and setting. For some of these results: Binding seen in cells or lysates may run through a third protein. Some binding calls cover weakened binding; strength is not graded here.

Chains of the proteins cited; added tags and fusions are not shown.
UniProt P21951: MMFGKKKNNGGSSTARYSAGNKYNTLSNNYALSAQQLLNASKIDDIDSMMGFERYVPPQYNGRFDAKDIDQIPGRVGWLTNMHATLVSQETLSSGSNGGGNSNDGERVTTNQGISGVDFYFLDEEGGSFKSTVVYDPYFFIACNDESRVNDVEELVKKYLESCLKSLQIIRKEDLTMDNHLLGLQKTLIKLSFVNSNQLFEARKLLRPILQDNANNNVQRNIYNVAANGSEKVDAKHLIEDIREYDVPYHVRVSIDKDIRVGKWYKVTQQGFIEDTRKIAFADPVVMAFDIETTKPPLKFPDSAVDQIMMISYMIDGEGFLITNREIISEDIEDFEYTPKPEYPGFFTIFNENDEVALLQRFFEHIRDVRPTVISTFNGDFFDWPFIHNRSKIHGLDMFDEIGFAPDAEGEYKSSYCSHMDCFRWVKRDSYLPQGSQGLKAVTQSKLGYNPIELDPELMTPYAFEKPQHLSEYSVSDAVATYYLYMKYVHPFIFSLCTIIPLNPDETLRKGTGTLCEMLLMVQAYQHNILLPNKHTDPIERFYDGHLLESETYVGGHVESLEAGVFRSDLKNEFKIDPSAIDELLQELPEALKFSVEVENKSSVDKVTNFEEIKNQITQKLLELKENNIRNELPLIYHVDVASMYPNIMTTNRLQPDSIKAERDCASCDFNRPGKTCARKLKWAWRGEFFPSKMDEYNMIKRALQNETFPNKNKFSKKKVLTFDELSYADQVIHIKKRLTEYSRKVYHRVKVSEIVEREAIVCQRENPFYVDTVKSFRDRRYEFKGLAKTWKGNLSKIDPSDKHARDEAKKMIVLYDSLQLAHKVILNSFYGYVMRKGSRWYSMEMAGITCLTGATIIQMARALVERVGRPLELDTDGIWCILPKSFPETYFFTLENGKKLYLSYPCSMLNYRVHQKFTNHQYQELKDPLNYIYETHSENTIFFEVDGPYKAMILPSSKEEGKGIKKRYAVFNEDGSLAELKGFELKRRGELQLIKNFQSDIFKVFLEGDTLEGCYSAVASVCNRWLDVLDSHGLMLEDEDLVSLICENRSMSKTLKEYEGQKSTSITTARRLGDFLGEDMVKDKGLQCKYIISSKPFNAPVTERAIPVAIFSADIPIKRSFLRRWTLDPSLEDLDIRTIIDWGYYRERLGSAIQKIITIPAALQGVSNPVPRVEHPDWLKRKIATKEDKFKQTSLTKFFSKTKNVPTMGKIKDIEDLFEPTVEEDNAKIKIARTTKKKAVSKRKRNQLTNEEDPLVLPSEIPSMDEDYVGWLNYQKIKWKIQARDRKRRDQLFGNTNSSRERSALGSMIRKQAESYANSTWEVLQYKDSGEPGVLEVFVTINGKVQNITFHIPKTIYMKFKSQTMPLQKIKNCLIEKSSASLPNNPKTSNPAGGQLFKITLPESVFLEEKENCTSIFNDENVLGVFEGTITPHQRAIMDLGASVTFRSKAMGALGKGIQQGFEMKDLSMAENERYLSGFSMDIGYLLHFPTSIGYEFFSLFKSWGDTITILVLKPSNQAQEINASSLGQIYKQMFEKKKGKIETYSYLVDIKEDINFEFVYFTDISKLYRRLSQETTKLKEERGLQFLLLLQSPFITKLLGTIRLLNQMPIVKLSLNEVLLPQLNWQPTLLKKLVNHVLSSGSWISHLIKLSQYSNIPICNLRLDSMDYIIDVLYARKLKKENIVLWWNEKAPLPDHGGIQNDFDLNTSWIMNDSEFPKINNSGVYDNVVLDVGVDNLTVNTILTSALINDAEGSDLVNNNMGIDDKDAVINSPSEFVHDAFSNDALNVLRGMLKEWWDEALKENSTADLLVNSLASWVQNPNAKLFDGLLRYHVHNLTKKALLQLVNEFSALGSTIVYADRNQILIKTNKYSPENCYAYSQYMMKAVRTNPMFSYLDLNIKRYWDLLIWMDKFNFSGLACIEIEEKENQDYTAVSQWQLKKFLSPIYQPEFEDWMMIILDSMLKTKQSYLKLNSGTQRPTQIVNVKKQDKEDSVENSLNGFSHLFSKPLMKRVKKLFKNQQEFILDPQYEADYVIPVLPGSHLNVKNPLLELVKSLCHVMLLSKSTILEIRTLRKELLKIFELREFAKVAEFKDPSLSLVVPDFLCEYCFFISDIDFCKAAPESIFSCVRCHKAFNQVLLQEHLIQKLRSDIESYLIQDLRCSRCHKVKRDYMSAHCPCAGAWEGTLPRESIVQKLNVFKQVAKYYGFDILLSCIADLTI

T1: Psf1 subunit of GINS (two-hybrid) (budding yeast) (UniProt Q12488)
T1 sequence: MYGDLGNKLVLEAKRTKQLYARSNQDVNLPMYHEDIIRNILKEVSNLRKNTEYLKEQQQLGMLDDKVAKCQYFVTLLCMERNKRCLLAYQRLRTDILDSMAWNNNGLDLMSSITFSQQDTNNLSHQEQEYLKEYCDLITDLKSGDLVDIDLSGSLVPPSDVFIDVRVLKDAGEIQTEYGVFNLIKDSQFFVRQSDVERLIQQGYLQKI

T2: Ctf4-4E (two-hybrid) (budding yeast) (UniProt Q01454)
T2 sequence: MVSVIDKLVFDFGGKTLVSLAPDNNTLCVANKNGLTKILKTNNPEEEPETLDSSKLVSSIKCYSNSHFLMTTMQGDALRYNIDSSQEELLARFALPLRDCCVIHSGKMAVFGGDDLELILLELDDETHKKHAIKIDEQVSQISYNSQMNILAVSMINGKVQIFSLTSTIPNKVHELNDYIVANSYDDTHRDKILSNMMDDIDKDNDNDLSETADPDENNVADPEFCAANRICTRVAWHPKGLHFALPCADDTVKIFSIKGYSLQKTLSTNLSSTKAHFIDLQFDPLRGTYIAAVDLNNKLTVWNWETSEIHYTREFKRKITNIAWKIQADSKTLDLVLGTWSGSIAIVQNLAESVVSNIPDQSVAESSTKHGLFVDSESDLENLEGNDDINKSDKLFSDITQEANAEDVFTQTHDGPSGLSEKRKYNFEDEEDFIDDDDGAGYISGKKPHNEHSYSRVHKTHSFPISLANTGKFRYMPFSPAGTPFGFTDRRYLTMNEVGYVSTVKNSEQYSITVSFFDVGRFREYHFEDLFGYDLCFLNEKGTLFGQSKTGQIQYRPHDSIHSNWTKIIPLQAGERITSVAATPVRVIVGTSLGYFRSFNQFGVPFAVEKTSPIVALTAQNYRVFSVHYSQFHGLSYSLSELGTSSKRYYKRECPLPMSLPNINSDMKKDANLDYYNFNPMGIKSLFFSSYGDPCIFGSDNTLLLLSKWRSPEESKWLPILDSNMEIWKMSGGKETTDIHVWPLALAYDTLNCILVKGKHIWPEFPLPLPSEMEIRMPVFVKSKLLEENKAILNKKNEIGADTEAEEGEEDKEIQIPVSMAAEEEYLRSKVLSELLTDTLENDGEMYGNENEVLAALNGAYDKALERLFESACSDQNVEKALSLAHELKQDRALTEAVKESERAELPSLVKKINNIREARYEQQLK

T3: wild-type Ctf4 (two-hybrid, limits not stated) (budding yeast) (UniProt Q01454)
T3 sequence: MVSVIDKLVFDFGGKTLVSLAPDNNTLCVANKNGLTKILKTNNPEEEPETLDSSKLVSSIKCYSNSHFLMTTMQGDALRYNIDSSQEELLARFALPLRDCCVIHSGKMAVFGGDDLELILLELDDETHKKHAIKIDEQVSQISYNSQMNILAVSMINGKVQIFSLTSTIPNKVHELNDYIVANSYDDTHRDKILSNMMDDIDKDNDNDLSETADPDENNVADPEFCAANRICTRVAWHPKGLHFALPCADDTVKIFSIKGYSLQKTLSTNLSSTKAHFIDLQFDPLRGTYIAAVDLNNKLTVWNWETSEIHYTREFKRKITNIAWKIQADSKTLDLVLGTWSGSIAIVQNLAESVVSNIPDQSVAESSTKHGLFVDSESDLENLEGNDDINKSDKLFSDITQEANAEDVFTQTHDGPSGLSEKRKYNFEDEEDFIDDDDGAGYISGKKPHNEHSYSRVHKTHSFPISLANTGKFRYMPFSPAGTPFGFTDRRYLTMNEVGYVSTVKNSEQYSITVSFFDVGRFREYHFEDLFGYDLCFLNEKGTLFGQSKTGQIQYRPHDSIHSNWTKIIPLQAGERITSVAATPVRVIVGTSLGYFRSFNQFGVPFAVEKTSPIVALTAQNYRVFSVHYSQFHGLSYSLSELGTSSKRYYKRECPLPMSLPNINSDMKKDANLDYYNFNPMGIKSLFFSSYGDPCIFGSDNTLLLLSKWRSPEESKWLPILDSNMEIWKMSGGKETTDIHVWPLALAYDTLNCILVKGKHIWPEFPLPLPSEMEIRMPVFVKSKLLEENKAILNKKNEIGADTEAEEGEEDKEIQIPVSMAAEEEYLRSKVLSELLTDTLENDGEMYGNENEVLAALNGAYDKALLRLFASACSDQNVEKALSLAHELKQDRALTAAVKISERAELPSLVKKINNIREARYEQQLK

T4: Ctf4 461–927 (budding yeast) (UniProt Q01454)
T4 sequence: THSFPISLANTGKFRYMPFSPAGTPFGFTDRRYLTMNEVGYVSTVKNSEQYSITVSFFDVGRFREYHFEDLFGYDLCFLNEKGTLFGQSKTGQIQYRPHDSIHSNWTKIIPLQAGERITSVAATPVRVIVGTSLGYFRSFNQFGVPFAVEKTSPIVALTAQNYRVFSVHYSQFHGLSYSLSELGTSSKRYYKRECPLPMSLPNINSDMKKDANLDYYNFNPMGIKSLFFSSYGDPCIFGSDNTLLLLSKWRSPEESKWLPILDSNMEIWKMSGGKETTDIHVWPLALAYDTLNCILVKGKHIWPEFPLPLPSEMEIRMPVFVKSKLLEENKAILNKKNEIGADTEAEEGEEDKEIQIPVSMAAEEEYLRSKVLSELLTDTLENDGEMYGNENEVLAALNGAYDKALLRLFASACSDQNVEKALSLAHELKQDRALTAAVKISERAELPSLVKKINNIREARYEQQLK

T5: Ctf4-3E (two-hybrid) (budding yeast) (UniProt Q01454)
T5 sequence: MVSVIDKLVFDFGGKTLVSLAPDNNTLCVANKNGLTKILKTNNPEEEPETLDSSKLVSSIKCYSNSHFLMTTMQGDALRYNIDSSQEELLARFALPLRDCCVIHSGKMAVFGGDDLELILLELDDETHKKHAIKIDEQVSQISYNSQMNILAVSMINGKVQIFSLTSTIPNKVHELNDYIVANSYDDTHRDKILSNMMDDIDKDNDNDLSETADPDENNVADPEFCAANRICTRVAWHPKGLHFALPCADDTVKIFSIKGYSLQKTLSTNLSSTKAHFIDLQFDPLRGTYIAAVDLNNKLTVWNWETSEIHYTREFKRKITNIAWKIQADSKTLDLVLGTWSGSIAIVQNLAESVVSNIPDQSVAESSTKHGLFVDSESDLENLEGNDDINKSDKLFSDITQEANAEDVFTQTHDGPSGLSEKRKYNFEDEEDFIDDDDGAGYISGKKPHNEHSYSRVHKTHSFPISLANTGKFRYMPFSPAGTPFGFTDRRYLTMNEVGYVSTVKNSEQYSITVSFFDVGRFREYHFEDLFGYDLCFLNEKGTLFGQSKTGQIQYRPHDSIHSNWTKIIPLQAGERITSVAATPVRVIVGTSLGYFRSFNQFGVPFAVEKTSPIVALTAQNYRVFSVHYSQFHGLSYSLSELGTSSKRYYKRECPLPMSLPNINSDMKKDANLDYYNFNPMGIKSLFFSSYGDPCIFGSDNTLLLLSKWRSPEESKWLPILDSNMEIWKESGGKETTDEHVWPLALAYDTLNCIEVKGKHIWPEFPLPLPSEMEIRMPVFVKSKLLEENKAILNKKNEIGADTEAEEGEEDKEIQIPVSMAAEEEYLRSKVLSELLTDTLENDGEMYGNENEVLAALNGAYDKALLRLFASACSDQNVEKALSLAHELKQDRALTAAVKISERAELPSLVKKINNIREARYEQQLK

T6: Tof2-ProteinA (budding yeast) (UniProt Q02208)
T6 sequence: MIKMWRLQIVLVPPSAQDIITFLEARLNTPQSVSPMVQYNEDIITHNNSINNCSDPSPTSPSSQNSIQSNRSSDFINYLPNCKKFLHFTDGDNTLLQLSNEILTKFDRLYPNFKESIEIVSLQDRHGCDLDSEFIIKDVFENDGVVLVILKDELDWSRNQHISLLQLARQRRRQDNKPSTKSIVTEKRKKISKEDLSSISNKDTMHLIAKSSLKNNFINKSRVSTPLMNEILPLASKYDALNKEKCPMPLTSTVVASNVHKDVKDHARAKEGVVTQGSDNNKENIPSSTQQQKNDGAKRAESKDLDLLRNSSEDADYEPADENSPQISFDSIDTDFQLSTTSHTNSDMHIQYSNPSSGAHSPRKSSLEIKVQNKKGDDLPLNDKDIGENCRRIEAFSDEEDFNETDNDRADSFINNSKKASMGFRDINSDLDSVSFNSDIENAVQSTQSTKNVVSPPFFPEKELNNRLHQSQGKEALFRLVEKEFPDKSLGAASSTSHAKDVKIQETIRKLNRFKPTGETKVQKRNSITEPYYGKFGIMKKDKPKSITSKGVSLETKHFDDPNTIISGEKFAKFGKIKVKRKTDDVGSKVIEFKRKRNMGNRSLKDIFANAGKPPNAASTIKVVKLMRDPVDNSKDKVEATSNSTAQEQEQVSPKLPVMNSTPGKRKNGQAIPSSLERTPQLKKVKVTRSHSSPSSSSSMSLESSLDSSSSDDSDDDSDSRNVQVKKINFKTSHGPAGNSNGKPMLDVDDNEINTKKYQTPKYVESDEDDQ


Assays:
[1] = target: Pol2 catalytic subunit of Pol ε (two-hybrid) (budding yeast) (UniProt P21951); test: two-hybrid; directed yeast two-hybrid assay, fusions to the activation and DNA-binding domains of Gal4
[2] = target: T1, Psf1 subunit of GINS (two-hybrid) (budding yeast); test: as above
[3] = target: T2, Ctf4-4E (two-hybrid) (budding yeast); test: as above
[4] = target: T3, wild-type Ctf4 (two-hybrid, limits not stated) (budding yeast); test: as above
[5] = target: T4, Ctf4 461–927 (budding yeast); test: as above
[6] = target: T5, Ctf4-3E (two-hybrid) (budding yeast); test: as above
[7] = target: T6, Tof2-ProteinA (budding yeast); test: co-IP; Tof2-ProteinA isolated on IgG beads from extracts of G1-phase and S phase cells; immunoblotting

binding [1] | binding [2] | binding [3] | binding [4] | binding [5] | binding [6] | binding [7] | Binder
binds | binds | binds | binds | binds | no binding |  | Dpb2 (two-hybrid) (protein, UniProt P24482 1-689) MFGSGNVLPVKIQPPLLRPLAYRVLSRKYGLSIKSDGLSALAEFVGTNIGANWRQGPATIKFLEQFAAVWKQQERGLFIDQSGVKEVIQEMKEREKVEWSHEHPIQHEENILGRTDDDENNSDDEMPIAADSSLQNVSLSSPMRQPTERDEYKQPFKPESSKALDWRDYFKVINASQQQRFSYNPHKMQFIFVPNKKQNGLGGIAGFLPDIEDKVQMFLTRYYLTNDRVMRNENFQNSDMFNPLSSMVSLQNELSNTNRQQQSSSMSITPIKNLLGRDAQNFLLLGLLNKNFKGNWSLEDPSGSVEIDISQTIPTQGHYYVPGCMVLVEGIYYSVGNKFHVTSMTLPPGERREITLETIGNLDLLGIHGISNNNFIARLDKDLKIRLHLLEKELTDHKFVILGANLFLDDLKIMTALSKILQKLNDDPPTLLIWQGSFTSVPVFASMSSRNISSSTQFKNNFDALATLLSRFDNLTENTTMIFIPGPNDLWGSMVSLGASGTLPQDPIPSAFTKKINKVCKNVVWSSNPTRIAYLSQEIVIFRDDLSGRFKRHRLEFPFNESEDVYTENDNMMSKDTDIVPIDELVKEPDQLPQKVQETRKLVKTILDQGHLSPFLDSLRPISWDLDHTLTLCPIPSTMVLCDTTSAQFDLTYNGCKVINPGSFIHNRRARYMEYVPSSKKTIQEEIYI
 |  |  |  |  |  | binds | Ctf4 (endogenous, yeast cell extracts) (protein, UniProt Q01454 1-927) MVSVIDKLVFDFGGKTLVSLAPDNNTLCVANKNGLTKILKTNNPEEEPETLDSSKLVSSIKCYSNSHFLMTTMQGDALRYNIDSSQEELLARFALPLRDCCVIHSGKMAVFGGDDLELILLELDDETHKKHAIKIDEQVSQISYNSQMNILAVSMINGKVQIFSLTSTIPNKVHELNDYIVANSYDDTHRDKILSNMMDDIDKDNDNDLSETADPDENNVADPEFCAANRICTRVAWHPKGLHFALPCADDTVKIFSIKGYSLQKTLSTNLSSTKAHFIDLQFDPLRGTYIAAVDLNNKLTVWNWETSEIHYTREFKRKITNIAWKIQADSKTLDLVLGTWSGSIAIVQNLAESVVSNIPDQSVAESSTKHGLFVDSESDLENLEGNDDINKSDKLFSDITQEANAEDVFTQTHDGPSGLSEKRKYNFEDEEDFIDDDDGAGYISGKKPHNEHSYSRVHKTHSFPISLANTGKFRYMPFSPAGTPFGFTDRRYLTMNEVGYVSTVKNSEQYSITVSFFDVGRFREYHFEDLFGYDLCFLNEKGTLFGQSKTGQIQYRPHDSIHSNWTKIIPLQAGERITSVAATPVRVIVGTSLGYFRSFNQFGVPFAVEKTSPIVALTAQNYRVFSVHYSQFHGLSYSLSELGTSSKRYYKRECPLPMSLPNINSDMKKDANLDYYNFNPMGIKSLFFSSYGDPCIFGSDNTLLLLSKWRSPEESKWLPILDSNMEIWKMSGGKETTDIHVWPLALAYDTLNCILVKGKHIWPEFPLPLPSEMEIRMPVFVKSKLLEENKAILNKKNEIGADTEAEEGEEDKEIQIPVSMAAEEEYLRSKVLSELLTDTLENDGEMYGNENEVLAALNGAYDKALLRLFASACSDQNVEKALSLAHELKQDRALTAAVKISERAELPSLVKKINNIREARYEQQLK
